Laboratory results from publication PMC7819943, “Rice protein-binding microarrays: a tool to detect cis-acting elements near promoter regions in rice”.
The other results are listed elsewhere or left out.

biological target: T1, OsWOX13 (Oryza sativa, UniProt Q5QMM3 1-267); assay: protein-binding microarray (RPBM); PBS, 2% BSA, 51.3 ng/ul salmon testes DNA, 50 uM zinc acetate, 200 nM TF, 25 C, 1 h; high values mean tight binding; conditions: protein: recombinant; tags: N-terminal polyhistidine and DsRed monomer fusion (pET32a); label: CyDye5-dUTP incorporated in the synthesized complementary strand; 3' TTTTT single-stranded linker to array surface; dsDNA, one strand shown
T1 sequence: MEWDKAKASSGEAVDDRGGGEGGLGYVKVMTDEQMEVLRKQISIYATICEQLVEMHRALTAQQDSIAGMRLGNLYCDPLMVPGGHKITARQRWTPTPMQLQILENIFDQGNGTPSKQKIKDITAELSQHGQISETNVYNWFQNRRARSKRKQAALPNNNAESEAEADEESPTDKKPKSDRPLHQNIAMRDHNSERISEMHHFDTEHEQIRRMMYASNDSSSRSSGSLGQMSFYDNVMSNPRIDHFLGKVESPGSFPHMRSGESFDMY
Method in brief: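 In PBS with 2% BSA, salmon testes DNA and 50 µM zinc acetate, 200 nM protein was incubated on a custom Agilent array at 25 °C for 1 h and then washed off. The array had been made double-stranded by primer extension with Cy5-dUTP and blocked with 2% BSA. The proteins were transcription factors fused N-terminally to polyhistidine and DsRed, expressed in E. coli BL21-CodonPlus and purified on Ni–NTA. The binding signal is per-feature fluorescence intensity (arbitrary units) from an Axon 4000B scanner.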

Sequence | binding signal
AAACCTAGATTATCTCTAATTTCTTCATATCACTGTGTATCGGAGTCACCTAGTGCAG | 19500 fluorescence intensity (a.u.)
GTAATTGAAAACCTAGTTTACCCGCACCGTCCGATCTCCCCGGAGTCACCTAGTGCAG | 16500 fluorescence intensity (a.u.)
ATCTCAAATTTTCTAAAATTATAATGGTATGGTTCCAATTCGGAGTCACCTAGTGCAG | 6510 fluorescence intensity (a.u.)
ATGATTGATCCATGAATCCCATTATCCATCATCCTCGAGTCGGAGTCACCTAGTGCAG | 63300 fluorescence intensity (a.u.)
CTGAGATAATTTGCTTGAAAGTACCTTGTATGCTAAGGCACGGAGTCACCTAGTGCAG | 23800 fluorescence intensity (a.u.)
GATGATCATAGAAAGGGAGATTGACAAGTGGGCCCATGGGCGGAGTCACCTAGTGCAG | 18200 fluorescence intensity (a.u.)
TGAATTGATGGAGTATGTATTTAAAAGCCTCGCTGGCGATCGGAGTCACCTAGTGCAG | 20700 fluorescence intensity (a.u.)
GTGATGATTTATTTTCGAACTATCTAGCTATTTATCTAGACGGAGTCACCTAGTGCAG | 9370 fluorescence intensity (a.u.)
AACAGTGCTTAATTGTTGCCATAACCCTGAGGACCCTGGCCGGAGTCACCTAGTGCAG | 4530 fluorescence intensity (a.u.)
CTTAATGAATACTATCATGCTGCAGTTTTCCCTTTTGTTTCGGAGTCACCTAGTGCAG | 8010 fluorescence intensity (a.u.)
TCCAATAATTTTCTTTTGCAAAGCTTTGTCACTGGCTCAACGGAGTCACCTAGTGCAG | 3510 fluorescence intensity (a.u.)
AAAGACAATTATTTTCAAAGTAATTTCCTACTAATTATCGCGGAGTCACCTAGTGCAG | 5110 fluorescence intensity (a.u.)
TGCACGTGATTGTCAAGTTTATATACCAGTCTACTCGTTTCGGAGTCACCTAGTGCAG | 27900 fluorescence intensity (a.u.)
TATAAATTGAAAATCGTCTTCCATTATAGCTTTGGATCGACGGAGTCACCTAGTGCAG | 19200 fluorescence intensity (a.u.)
GGCTAGATGATTTGGATTCGAAATCTCACCCCTTCTAATTCGGAGTCACCTAGTGCAG | 5760 fluorescence intensity (a.u.)
TAGTTAATATGTAATAATACATTTATTTATTTATATTAGACGGAGTCACCTAGTGCAG | 3940 fluorescence intensity (a.u.)
AAGATTGGGAAGATACGCAAAACGAGGTGAGCTATTAGTGCGGAGTCACCTAGTGCAG | 4430 fluorescence intensity (a.u.)
CGACGAAATTATTATTACATATCTGGGTCTGGGTGCCAGCCGGAGTCACCTAGTGCAG | 6440 fluorescence intensity (a.u.)
CATGTAGAATTGAATTAAATTAATTACTGTGAGGACAAATCGGAGTCACCTAGTGCAG | 14700 fluorescence intensity (a.u.)
ACTTGCAATCACTATTGTGACTGTCAGTAGTCGGTAGCAGCGGAGTCACCTAGTGCAG | 15100 fluorescence intensity (a.u.)
TGACAATTACAGTATAAACTGATTTCATTATATTTAACACCGGAGTCACCTAGTGCAG | 11200 fluorescence intensity (a.u.)

Sequence | binding signal
AGAATGGAAATTAACACTCACATTACCACATGGAATTAAGCGGAGTCACCTAGTGCAG | 3190 fluorescence intensity (a.u.)
AATTCCGGGTAATCAGCAAAATGATGACTTTGACGACCAACGGAGTCACCTAGTGCAG | 3480 fluorescence intensity (a.u.)
GTTGCAGATTGAGAGCCAAAGACATTATCTTGATTCTATCCGGAGTCACCTAGTGCAG | 13100 fluorescence intensity (a.u.)
CCGTGCGCTCGCCTGATTGAGTTCACTGCCACCCGTTGGTCGGAGTCACCTAGTGCAG | 3650 fluorescence intensity (a.u.)
CTTTGATAAATTGGAGACTTGAAAATGTATTTTGAAAGTTCGGAGTCACCTAGTGCAG | 26200 fluorescence intensity (a.u.)
GCTTGTGATTTGTGCTGTACACGGTTACTGTAGCCAAGTTCGGAGTCACCTAGTGCAG | 22700 fluorescence intensity (a.u.)
CATCTGTAATGTCATGATTTATTTATAGAATATATTAAATCGGAGTCACCTAGTGCAG | 3760 fluorescence intensity (a.u.)
GTTTGATTATCTGAACTCCAGCAGAAATTGCATTGGTTCTCGGAGTCACCTAGTGCAG | 26800 fluorescence intensity (a.u.)
ATAATTATTCTGTTAATTAATCAATTATTATCTGGGAATCCGGAGTCACCTAGTGCAG | 63600 fluorescence intensity (a.u.)
GCCGTGTGATTAGCCGTTTACGTACCGTTCGGATCTGGTCCGGAGTCACCTAGTGCAG | 40200 fluorescence intensity (a.u.)
ATTAATTGGTCAATCATGCATGCAAGCATCTGCTTATGGACGGAGTCACCTAGTGCAG | 44000 fluorescence intensity (a.u.)
AATGAATTTAGATAGATATATATATCTAGATTCATTAGCACGGAGTCACCTAGTGCAG | 7940 fluorescence intensity (a.u.)
TCAGATTGGAAAAGCTTAACTGTTTAAGTTTGGTGATTTCCGGAGTCACCTAGTGCAG | 8040 fluorescence intensity (a.u.)
ATATTAATTGATGTCCTGCTAGATATATAGATTAAATCTCCGGAGTCACCTAGTGCAG | 43900 fluorescence intensity (a.u.)
CTTATATTATGGATAATTGTAAAAGTAAACTATAGAGCTGCGGAGTCACCTAGTGCAG | 7010 fluorescence intensity (a.u.)
CTCCTTTAATTACCATGTATCTCTGTTTTGTACCTCTATCCGGAGTCACCTAGTGCAG | 12900 fluorescence intensity (a.u.)
ATTTCCATCTTAATCTCACAATTAATTCTCTCGTGTAAACCGGAGTCACCTAGTGCAG | 3280 fluorescence intensity (a.u.)
AAAATTGATACGTACAGATTAAATCAGTACAATCCATACACGGAGTCACCTAGTGCAG | 16400 fluorescence intensity (a.u.)
CTAGACCAATCATCCCATCATCATCTCACAATCATCAGAACGGAGTCACCTAGTGCAG | 13500 fluorescence intensity (a.u.)
ATGGAGACTTATACGTGATTTATCTCTTCTATTCAATTGTCGGAGTCACCTAGTGCAG | 4430 fluorescence intensity (a.u.)
ATTGGTAGAATTAATCACTAATCAGAGAAACTAATCACTACGGAGTCACCTAGTGCAG | 3600 fluorescence intensity (a.u.)

Sequence | binding signal
TTTCGTCTTGCTAATTACAGTGATTAATCCGTTATTACATCGGAGTCACCTAGTGCAG | 12500 fluorescence intensity (a.u.)
GGTAATGGGTAATGTGTATTAATAGAGGATTAGAGGGTATCGGAGTCACCTAGTGCAG | 9910 fluorescence intensity (a.u.)
TAGTACATAATTTGTTTGGACTTTTGACTCCAGGAAAGTTCGGAGTCACCTAGTGCAG | 10100 fluorescence intensity (a.u.)
ACCATCAGACAAGCATATAATTGATTGCTCTGATCAAGCGCGGAGTCACCTAGTGCAG | 32600 fluorescence intensity (a.u.)
AGTTAGATTGGTTCATGATTGGCTGTAACTTTTAGGACGCCGGAGTCACCTAGTGCAG | 51700 fluorescence intensity (a.u.)
TACACCTTATCAATCTACCGGTATAATTCGATCCCACATCCGGAGTCACCTAGTGCAG | 7010 fluorescence intensity (a.u.)
AGGTTGATTAACTGTTTCATGAATTTGGTATGTTTGCAGTCGGAGTCACCTAGTGCAG | 53300 fluorescence intensity (a.u.)
TCAGAAGATTGATCTTCCCGTGTGGTTACAGGCCAGCTTTCGGAGTCACCTAGTGCAG | 14000 fluorescence intensity (a.u.)
CCAAGAAGTGCTAATTGAGGATATTTCGGGTGAGGTCCTCCGGAGTCACCTAGTGCAG | 7800 fluorescence intensity (a.u.)
GCGGATTAGCATTCTCGCAAATTTGTAACTTCGATCTATCCGGAGTCACCTAGTGCAG | 9840 fluorescence intensity (a.u.)
AAGTTTGATCAAATTTATAGGAAATTTAGCAACATCTAAACGGAGTCACCTAGTGCAG | 3910 fluorescence intensity (a.u.)
AGGATTAGCCATAATTGCTACAATAACCCGTATGTGCTAACGGAGTCACCTAGTGCAG | 24600 fluorescence intensity (a.u.)
GTTAAATTTTGCTTCCAAACCAAACAGCCTAACAAGCCGTCGGAGTCACCTAGTGCAG | 6500 fluorescence intensity (a.u.)
GGACTACGTGACAGATTTTGCAATCCGGTGCCCAATGAAGCGGAGTCACCTAGTGCAG | 4200 fluorescence intensity (a.u.)
TCTAAATTTAGCAATCACTTATCCTATACCTCCGCTCGTACGGAGTCACCTAGTGCAG | 36900 fluorescence intensity (a.u.)
GAGGCAATCATCTGCATGATGGACATGTAATAATCGGATGCGGAGTCACCTAGTGCAG | 20900 fluorescence intensity (a.u.)
GCTGCTTTTGCCAAAATTAATTTGCAACACTTGTGACAAACGGAGTCACCTAGTGCAG | 4670 fluorescence intensity (a.u.)
AATTAAAATTGATGATGTTTGTTAGTTTTATTAGCACTATCGGAGTCACCTAGTGCAG | 17700 fluorescence intensity (a.u.)
CCGATGTAAATTTACCAAATTTGGTTGTTAACAAGTGGATCGGAGTCACCTAGTGCAG | 27800 fluorescence intensity (a.u.)
ATTTAAATCAATGTTGATGATGTAGCACTTTTGAATTCATCGGAGTCACCTAGTGCAG | 16900 fluorescence intensity (a.u.)
ATTAGTTACAGCTAATCACTACTCCGGTCGAAAGAATATCCGGAGTCACCTAGTGCAG | 3500 fluorescence intensity (a.u.)

Sequence | binding signal
ATGTTCTTTCTTGATTAGACCATCTGATGCTTTGCGCAGTCGGAGTCACCTAGTGCAG | 4480 fluorescence intensity (a.u.)
CTAAATCGATGATTAACGAGTCAGTGTTACTACTACTTTCCGGAGTCACCTAGTGCAG | 20100 fluorescence intensity (a.u.)
TTAGATAAAATTAATTTGTCTTGCTTTTGTAGGCTGCAGACGGAGTCACCTAGTGCAG | 27700 fluorescence intensity (a.u.)
TAAAGTTAATTTATTTTGGGACAGTTTGAGTAATTGGTAACGGAGTCACCTAGTGCAG | 20900 fluorescence intensity (a.u.)
CTGGACTGACAGTGTGACACGCGCTCCTAGTTGACATCAACGGAGTCACCTAGTGCAG | 5250 fluorescence intensity (a.u.)
TCTCAATTTAAAATGATTACTTATATCCCGGTTAAGTTTACGGAGTCACCTAGTGCAG | 26200 fluorescence intensity (a.u.)
GAGAGATGAGATCAATCAGGAGCAGGAGCCAGGAGGAAAGCGGAGTCACCTAGTGCAG | 5780 fluorescence intensity (a.u.)
AATGATTAATTCTTGGAAGATCCATTGGGCATCCATAGTCCGGAGTCACCTAGTGCAG | 38500 fluorescence intensity (a.u.)
CAACAATCATCAACTACTTGTTAAATCTTATCCACTGGAACGGAGTCACCTAGTGCAG | 4500 fluorescence intensity (a.u.)
AGCTAATTAAAGGGAGCAAATGTGATGAACATACCGATCCCGGAGTCACCTAGTGCAG | 22600 fluorescence intensity (a.u.)
ACTTAATTAATCATGTGCTAATATATCGCTCCGCTGTGGCCGGAGTCACCTAGTGCAG | 42300 fluorescence intensity (a.u.)
GTTTGTGATAATTATTGAGATGTACAAACGAACAAATTAACGGAGTCACCTAGTGCAG | 4480 fluorescence intensity (a.u.)
TCATAATTTCTACCGCTGATGTAGCATAGCCCGAATGTCCCGGAGTCACCTAGTGCAG | 11100 fluorescence intensity (a.u.)
ATAGATTGCCCACATAGTCTGGGAGGTTTCCGGTGAAATACGGAGTCACCTAGTGCAG | 6010 fluorescence intensity (a.u.)
TTACTTAACTGTTTAAAGGCCTAATTATTCCTAAAATAGTCGGAGTCACCTAGTGCAG | 5380 fluorescence intensity (a.u.)
CAAATTATCATAGAACTATAGATTTAACTCGATGTATCACCGGAGTCACCTAGTGCAG | 3220 fluorescence intensity (a.u.)
AACCAATCACACCCTATATCTTCACCTTTCTTTCGTTCGGCGGAGTCACCTAGTGCAG | 24000 fluorescence intensity (a.u.)
CCACATTAATGACACAATTAACACCCTCACATGTCCGTGCCGGAGTCACCTAGTGCAG | 21900 fluorescence intensity (a.u.)
GTTTACAATCACTATCAGGAAATATAGACATGAATATGATCGGAGTCACCTAGTGCAG | 3480 fluorescence intensity (a.u.)
GGTGACAGCTTATTTAATACTATGGACATCATCCTAGTCACGGAGTCACCTAGTGCAG | 8780 fluorescence intensity (a.u.)
TAACCAATTTTGACTAATTCCAAGTCAATCGATTTGACTACGGAGTCACCTAGTGCAG | 11000 fluorescence intensity (a.u.)
